We go through 14 compounds from patent publication US7635701B2 (Glaxo Group Limited, priority 2002, dated 2009).

The target of this test is human cannabinoid CB2 receptor (Homo sapiens, UniProt P34972). Nature of the test: Cannabinoid CB2 receptor agonist activity in yeast cells (FDGlu fluorescence). As to conditions: read-out: efficacy (Emax) at the cloned human cannabinoid CB2 receptor.

Bounds are passed on as bounds.

human cannabinoid CB2 receptor, sequence (P34972 whole entry): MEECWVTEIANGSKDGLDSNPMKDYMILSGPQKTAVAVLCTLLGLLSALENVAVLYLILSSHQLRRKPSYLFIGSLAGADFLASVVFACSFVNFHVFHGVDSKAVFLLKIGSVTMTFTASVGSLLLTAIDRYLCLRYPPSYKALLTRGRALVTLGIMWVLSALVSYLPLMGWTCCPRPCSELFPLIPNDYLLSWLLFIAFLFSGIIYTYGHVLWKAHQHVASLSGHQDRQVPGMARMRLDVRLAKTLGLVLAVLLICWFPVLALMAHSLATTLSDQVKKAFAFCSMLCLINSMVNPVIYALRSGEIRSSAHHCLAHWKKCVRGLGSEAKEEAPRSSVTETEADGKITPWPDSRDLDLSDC

Turning to `O=C(NCC1CCCC1)c1cnc(Nc2cccc(Cl)c2)nc1C(F)(F)F` [Example 2], the Emax was > 50%. `O=C(NCC1CCCCC1)c1cnc(Nc2cccc(Cl)c2)nc1C(F)(F)F` [Example 4, 2-(3-Chlorophenylamino)-4-trifluoromethylpyrimidine-5-carboxylic acid cyclohexylmethylamide]: the maximum response (Emax) was > 50%.

For the compound `O=C(NCC1CCOCC1)c1cnc(Nc2cccc(Cl)c2)nc1C(F)(F)F` [Example 22, 2-(3-Chlorophenylamino)-4-trifluoromethylpyrimidine-5-carboxylic acid (tetrahydro-pyran-4-ylmethyl)-amide], the Emax is > 50%. For `O=C(NCC1CCOCC1)c1cnc(Nc2cccc(Cl)c2Cl)nc1C(F)(F)F` [Example 33, 2-(2,3-Dichlorophenylamino)-4-trifluoromethylpyrimidine-5-carboxylic acid (tetrahydropyran-4-ylmethyl)amide] the value was > 50%.

In the case of `O=C(NCC1CCOCC1)c1cnc(Nc2ccc(Cl)cc2Cl)nc1C(F)(F)F` [Example 34, 2-(2,4-Dichlorophenylamino)-4-trifluoromethylpyrimidine-5-carboxylic acid (tetrahydropyran-4-ylmethyl)-amide], the Emax was > 50%. With `O=C(NCC1CCOCC1)c1cnc(Nc2cc(Cl)ccc2Cl)nc1C(F)(F)F` [Example 35, 2-(2,5-Dichlorophenylamino)-4-trifluoromethylpyrimidine-5-carboxylic acid (tetrahydropyran-4-ylmethyl)-amide], the Emax is > 50%. `O=C(NCC1CCOCC1)c1cnc(Nc2cc(Cl)cc(Cl)c2)nc1C(F)(F)F` [Example 36, 2-(3,5-Dichlorophenylamino)-4-trifluoromethylpyrimidine-5-carboxylic acid (tetrahydropyran-4-ylmethyl)-amide]: the Emax is > 50%.

As for `O=C(NCC1CCC1)c1cnc(Nc2cccc(Cl)c2)nc1C(F)(F)F` [Example 54, 2-(3 Chlorophenylamino)-4-trifluoromethylpyrimidine-5-carboxylic acid cyclobutylmethyl-amide], the maximal response (Emax) was > 50%. As for `O=C(NCC1CCOCC1)c1cnc(Nc2c(Cl)cccc2Cl)nc1C(F)(F)F` [Example 55, 2-(2,6-Dichlorophenylamino)-4-trifluoromethyl-pyrimidine-5-carboxylic acid (tetrahydro-pyran-4-ylmethyl)-amide], the maximal effect (Emax) was > 50%. As for `CC(C)CNC(=O)c1cnc(Nc2cccc(Cl)c2)nc1C(F)(F)F` [Example 210], the maximal response (Emax) is > 50%. For `O=C(NCC1CCOCC1)c1cnc(Nc2cc(Cl)ccc2F)nc1C(F)(F)F` [Example 213] the value was > 50%. With `O=C(NCC1CCOCC1)c1cnc(Nc2cc(F)cc(F)c2)nc1C(F)(F)F` [Example 214, 2-(3,5-Difluorophenylamino)-4-trifluoromethyl-pyrimidine-5-carboxylic acid (tetrahydro-pyran-4-ylmethyl)-amide], the maximal effect (Emax) was > 50%.

As to `O=C(NCC1CCOCC1)c1cnc(Nc2ccc(F)cc2Cl)nc1C(F)(F)F` [Example 233, 2-(2-Chloro-4-fluoro-phenylamino)-4-trifluoromethyl-pyrimidine-5 carboxylic acid (tetrahydro-pyran-4-ylmethyl)-amide], the Emax is > 50%. Regarding `O=C(NCC1CCOCC1)c1cnc(Nc2ccc(Cl)c(Cl)c2)nc1C(F)(F)F` [Example 250, 2-(3,4-Dichlorophenylamino)-4-trifluoromethylpyrimidine-5-carboxylic acid (tetrahydro-pyran-4-ylmethyl)-amide], the maximum response (Emax) is > 50%.
